Consider 55 compounds from ChEMBL document CHEMBL4888484, “Replenishing the malaria drug discovery pipeline: Screening and hit evaluation of the MMV Hit Generation Library 1 (HGL1) against asexual blood stage Plasmodium falciparum ,using a nano luciferase reporter read-out” (2022).

The structures appear in SMILES notation. About 540 (0.36%) of roughly 150,000 compounds showed an effect of 50% or more. This is one part of the list.

This experiment deals with Plasmodium falciparum. Nature of the experiment: Primary screen in NF54 nanoGlo assay, in single point, at 2uM, 72h; a lower Z score goes with more inhibition. The settings on record: timepoint 72 hour. Format: functional, Erythrocyte.
For `CC(C)(C)OC(=O)N1CC2(C1)NCCn1cccc12`, the % Inhibition (as a rule, the relative decrease from the control value, in per cent) is listed as -11% and the Z score is on record as 1.1.

As to `Cc1nnc(N2CCN(S(=O)(=O)c3conc3C)CC2)s1`, the “% Inhibition” value stood at 3% and the Z score is reported as -0.31.

For the compound `Cc1c(-c2cccc(-c3ccn(CCF)n3)c2)c(=O)n(C)c(=O)n1C`, the “% Inhibition” value was 8% and the Z score is recorded as -1.33.

On to `COc1ccc(NC(=O)CN2C(=O)COc3ccc(C(=O)N4CCCCC4)cc32)cc1`, for which the “% Inhibition” value was -2% and the Z score came out at 0.2.

Turning to `Cc1c(C(=O)O)nn(-c2ccc(F)cc2)c1Oc1ccc(NC(=O)CC(C)C)cc1S(=O)(=O)NCC(C)C`, the “% Inhibition” value was -16% and the Z score is reported as 1.93.

Turning to `CN(C)c1cccc(C(=O)N[C@@H](CO)C(C)(C)C)c1`, the “% Inhibition” value stood at 35% and the Z score is -3.95.

Take `CCNC(=O)N1CC[C@H](OCCCc2ccccc2)C1`: the “% Inhibition” value was -4% and the Z score was found to be 0.65.

On to `Cc1ccc2nc(N3CCC[C@H](O)C3)c(CN(C)Cc3ccnc(C)c3)cc2c1`, for which the “% Inhibition” value turned out to be 4% and the Z score was -0.55.

On to `Cc1nn(CCO)cc1CNCc1cc(CC(C)C)no1`, for which the “% Inhibition” value is recorded as -10% and the Z score was 1.6.

As to `N#CC1(CS(=O)(=O)N2CC3(CCCCC3)[C@H]2c2ccccc2)CC1`, the “% Inhibition” value is recorded as -5% and the Z score was found to be 0.54.

`Cc1ccccc1C1CC1Nc1ncccn1` (stereo not given): the “% Inhibition” value is reported as -9% and the Z score is recorded as 1.2.

Regarding `Cc1nccc(NC(=O)NC(CC2CCCO2)C(F)(F)F)c1Br` (stereo not given), the “% Inhibition” value is listed as 6% and the Z score is listed as -0.86.

`C#CCN(CCCc1ccccc1C)[C@H]1CCS(=O)(=O)C1`: the “% Inhibition” value was 39% and the Z score is listed as -4.45.

`Cc1ncc(CN2CCC(Oc3cccc(F)c3)(C(=O)O)CC2)n1C`: the “% Inhibition” value is on record as -8% and the Z score was 1.53.

For `Cc1noc(CNC(=O)c2nnn(-c3nc4c(s3)CCCC4)c2C)n1`, the “% Inhibition” value is -10% and the Z score worked out at 1.81.

On to `CN(C1(CO)CCC1)S(=O)(=O)c1cnc2ccsc2c1`, for which the “% Inhibition” value is -9% and the Z score is recorded as 0.74.

`CC(=O)c1c(C)nn([C@@H](C)CC(=O)NCCc2nc(C)c3c(n2)CCC3)c1C`: the “% Inhibition” value came out at 5% and the Z score was -0.97.

Regarding `COc1ccc(Cl)cc1NC(=O)C12CCC(C)(C(=O)C1=O)C2(C)C` (stereo not given), the “% Inhibition” value was -12% and the Z score was 1.48.

Take `CC1(C)[C@@H]2CCC13CS(=O)(=O)N(Cc1ccc(S(C)(=O)=O)o1)[C@H]3C2`: the “% Inhibition” value is 7% and the Z score is reported as -0.91.

As for `O=C(NCc1cc(Oc2cccc(Cl)c2)ccn1)C1CCOCC1`, the “% Inhibition” value is 1% and the Z score was -0.28.

Consider `CC1CN(c2cc(C(=O)c3cccnc3)ccn2)CC(C2CC2)O1` (stereo not given), for which the “% Inhibition” value is -8% and the Z score was 0.84.

For the compound `Cc1cncc(C(=O)Nc2cnccn2)c1`, the “% Inhibition” value is -11% and the Z score is listed as 1.12.

For the compound `Cc1oc(C2CCN(C(=O)Nc3cccc(F)c3C)CC2)nc1C(=O)N1CCCC1`, the “% Inhibition” value is given as -3% and the Z score is listed as 0.55.

In the case of `CO[C@H](c1ccc(C)cc1)c1c(C)oc2cc(C#N)c(C#N)cc12`, the “% Inhibition” value is -9% and the Z score turned out to be 1.37.

Consider `COCCC(NC(=O)C1CCCc2[nH]ncc21)c1ccc(Cl)cc1` (stereo not given), for which the “% Inhibition” value is -14% and the Z score turned out to be 1.69.

For `CC(C)(C)CC(=O)NC[C@H]1OC[C@@H](NCc2ccncc2)[C@@H]1O`, the “% Inhibition” value is -1% and the Z score is on record as 0.16.

With `COc1nc(C)c(-c2cccc(NC(C)=O)c2)c(C)c1C#N`, the “% Inhibition” value is 2% and the Z score was -0.48.

For `CC(=O)N1CCCc2cc(-c3cnn(C)c3)ccc21`, the “% Inhibition” value is given as -12% and the Z score is 1.16.

For the compound `CC(=O)c1cc(-c2cccc3cccnc23)ccc1O`, the “% Inhibition” value is -3% and the Z score stood at 0.49.

For `CCc1ncc(S(=O)(=O)N2CC(C)(C)[C@@H]2C2CC2)s1`, the “% Inhibition” value is reported as -3% and the Z score is listed as 0.35.

Consider `CCCC(=O)n1nc(CC)c2c1CC(C)(C)CC2=O`, for which the “% Inhibition” value is on record as -18% and the Z score is on record as 2.41.

Consider `O=C(NC[C@@H](CO)CC1CCCCC1)c1ccc2c(c1)OCCO2`, for which the “% Inhibition” value was -5% and the Z score worked out at 0.5.

Turning to `O=C(NC[C@H](O)c1ccc(-c2ccco2)o1)NC1CCCC1`, the “% Inhibition” value is recorded as 8% and the Z score is given as -1.11.

As to `CCS(=O)(=O)c1cccc(CC(=O)N2CC(C)CC2c2ccccc2)c1` (stereo not given), the “% Inhibition” value stood at 1% and the Z score is on record as -0.09.

As for `CCCc1cc(N2CCc3c(nc(C4CC4)n3C)C2)n2ncnc2n1`, the “% Inhibition” value was -1% and the Z score is 0.15.

Turning to `O=C(c1ccc(Cl)cc1)n1c2ccccc2c2ccccc21`, the “% Inhibition” value is listed as -9% and the Z score stood at 0.76.

For `Cc1nnc(Cc2ccc(NC(=O)CCc3cc4n(n3)CCNC4)cc2)[nH]1`, the “% Inhibition” value is listed as -12% and the Z score came out at 1.48.

As to `O=C1CCC[C@]2(c3ccccc3)NCCN12`, the “% Inhibition” value is on record as 5% and the Z score was -0.69.

With `O=c1ccc(-c2nc(-c3ccccc3F)no2)c[nH]1`, the “% Inhibition” value is on record as -15% and the Z score is on record as 1.65.

`CC(=O)Nc1ccc(CN2C[C@H](C(=O)O)[C@@H](c3ccc4c(c3)OCO4)C2)cc1`: the “% Inhibition” value is given as 1% and the Z score was -0.16.

Consider `O=C(C(=O)N1CCCc2ccccc21)N1CCN(CCO)CC1`, for which the “% Inhibition” value was -4% and the Z score worked out at 0.49.

On to `O=C(NCC1CCCCC1)N1CCC(c2nccn2CC2CCC2)CC1`, for which the “% Inhibition” value is 8% and the Z score is reported as -1.37.

For the compound `CCc1nc(C)c([C@@H]2C[C@H](NC(C)=O)C[C@H](CCc3ccccc3)O2)[nH]1`, the “% Inhibition” value is -1% and the Z score amounted to 0.14.

On to `O=C(CN1CCC(NC2CCCC2)CC1)NC1CCCCCCC1`, for which the “% Inhibition” value is 12% and the Z score was -1.18.

Turning to `CC[C@H](N)c1cc(Cl)ccc1Cl`, the “% Inhibition” value is recorded as -13% and the Z score came to 1.3.

In the case of `Cc1cccc(-c2nsc3c(=O)n(CC(=O)NCCc4ccc(Cl)cc4)cnc23)c1`, the “% Inhibition” value is -8% and the Z score is recorded as 1.34.

On to `CC(C)c1nsc(NC2C(=O)NCCC2C)n1` (stereo not given), for which the “% Inhibition” value was -16% and the Z score is 1.44.

On to `Nc1ccc(C(=O)NCCc2csc(-c3ncccn3)n2)cn1`, for which the “% Inhibition” value is given as -4% and the Z score amounted to 0.74.

Regarding `COCCS(=O)(=O)N1CCC(CCN(C)C)CC1`, the “% Inhibition” value is on record as -5% and the Z score was determined as 0.64.

For `Cc1cc(C)n(-c2nccn3nc(C)cc23)n1`, the “% Inhibition” value is -11% and the Z score worked out at 2.08.

Consider `O=C1NC2(CCCC2)C(=O)N1CCn1nc(C(F)(F)F)ccc1=O`, for which the “% Inhibition” value is reported as -11% and the Z score is on record as 1.7.

On to `CCc1[nH]c2ccc(CN[C@@H](C)Cn3nc(C)cc3C)cc2c1C`, for which the “% Inhibition” value is recorded as 7% and the Z score is given as -0.83.

With `O=C1CN(C(=O)c2ncc3ccccc3c2O)CN1CCC(F)(F)F`, the “% Inhibition” value was -10% and the Z score is 1.51.

Turning to `COc1ccc(CN2CCOC[C@@H]2CC(=O)NCC2=CCCCC2)c(C)c1C`, the “% Inhibition” value is recorded as -3% and the Z score came out at 0.3.

Regarding `NCC1CN(C(=O)C2CCCc3ccccc32)CCO1` (stereo not given), the “% Inhibition” value is on record as -1% and the Z score is on record as 0.08.
